Measured values as given in PubChem BioAssay AID493208 (National Center for Advancing Translational Sciences (NCATS), 2011).
The campaign covered roughly 44,000 compounds. About 340 (0.77%) were called active. Roughly 5% stayed inconclusive and do not appear here. The call rests on the fitted dose curve; in most records, active means well fitted inhibition curve with a large enough effect; inconclusive means small, poorly fitted or top-dose-only effect; inactive means flat fitted curve, though single readings scatter. The list shows a part of the results.

Assay: Acumen qHTS Assay for Inhibitors of the mTORC1 Signaling Pathway in MEF (Tsc2-/-, p53-/-) Cells: Sytravon;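 further: plate controls were DMSO for no effect and rapamycin for full effect; nearly all actives have a fitted effect of over 50% in size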
Conditions: phospho-rpS6 immunofluorescence/PI, 24 h; series mostly up to 38.3 µM; activity change, negative = inhibition: at the top concentration
Procedure, shortened: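 Readout is phospho-S6 Alexa 488 signal normalized to PI per well, reported as % active cells with thresholds set from rapamycin (7.5 nM) and DMSO controls. Cells: Tsc2-/-, p53-/- MEFs, 24 hrs compound at 37 C; PI cell number serves as viability.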

Activity change, negative = inhibition, inactive:
N#C/C(=C\c1ccc(-c2ccc(C(=O)O)cc2)o1)C(=O)Nc1ccccc1C(=O)O 7.31%, Cc1nn(CCC(=O)Nc2cc(F)ccc2F)c(=O)c2nn(-c3ccccc3)c(C)c12 -0.137%, O=C(CC1N=C2c3ccccc3N=C(SCc3cccc(Cl)c3)N2C1=O)NCc1ccc2c(c1)OCO2 (stereo not given) 0.136%, CC1CCCCN1C(=O)CSc1n[nH]c(-c2ccccc2Cl)n1 (stereo not given) 2.36%, COc1cc(Nc2nc(SCC(=O)c3ccc(Br)cc3)nc3ccccc23)cc(OC)c1 -18.4%, Cc1ccccc1NC(=O)CSc1nnc(COc2ccc(Cl)cc2)o1 -9.38%, CCOCCn1ccc2c(OCC(=O)NCc3ccc(C)cc3)cccc2c1=O -5.28%, CCCSc1ncc(Cl)c(C(=O)NCc2ccc(OC)cc2)n1 -4.74%, CN(C)CCNC(=O)c1ccc2c(c1)N(Cc1ccccc1)C(=O)c1ccccc1S2(=O)=O -0.45%, COc1ccc(-c2cn3nc(N4CCCC(C(=O)Nc5cccc(Cl)c5C)C4)sc3n2)cc1 (stereo not given) 4.22%, O=C1c2[nH]nc(-c3ccccc3O)c2C(c2cccc(O)c2)N1Cc1ccncc1 (stereo not given) -1.64%, O=C(Cn1cc(C(=O)c2ccncc2)c(=O)c2cc(F)ccc21)Nc1ccc(Cl)cc1 -0.516%, COCCCNC(=O)N1[C@H](c2cccs2)[C@@H](C)C(=O)[C@@H](C)[C@@H]1c1cccs1 2.56%, COc1cccc(-n2cc(C(=O)OCc3ccc(F)c(F)c3)c3ccccc3c2=O)c1 -9%, Cc1ccc2c(c1)N(S(=O)(=O)c1cc(-c3onc(C)c3C)ccc1C)CCO2 -28%, O=C(CN1C(=O)COc2ccc(S(=O)(=O)N3CCCC3)cc21)N1CCN(c2ccc(Cl)cc2)CC1 -2.34%, Cc1ccc(O)c(NC(=O)c2noc3c2CCCC3)c1 -1.44%, COc1ccccc1CNC(=O)CCn1c(=O)c2ccccc2n(CC(=O)Nc2ccc(Br)cc2F)c1=O -7.65%, O=C(Nc1ccc(F)c(Cl)c1)C1CCN(S(=O)(=O)c2ccc3[nH]c(=O)ccc3c2)CC1 -10.7%, Cc1ccc(C(=O)Nc2nc3n(n2)C(c2ccc(F)cc2)C=C(c2ccccc2)N3)cc1 (stereo not given) -7.2%, CCOC(=O)c1c(NC(=O)c2ccc(Br)cc2)sc2c1CCCC2 -1.06%, Cc1nn(C)c2c1c(C(F)(F)F)cc(=O)n2CC(=O)N1CCCCC1 0%, Cc1ccc2nc(-c3cccc(NC(=O)c4ccc(Br)o4)c3)oc2c1 2.54%, CCOc1ccccc1-n1nnc(-c2nc(-c3ccccc3C)no2)c1C 5.55%, COc1ccc(C(=O)Nc2nnc(S(=O)(=O)N3CCCc4ccccc43)s2)cc1 -11%, Cc1ccc(NC(=O)CSc2ccc3nnc(CCNS(=O)(=O)c4ccccc4)n3n2)cc1Cl -0.983%, Cc1ccc(Cl)cc1NC(=O)N1CCC(CN2CCCCCC2)CC1 -5.11%, Cc1ccccc1NC(=O)c1cccc2c(=O)c3c([nH]c12)CCCC3 -7.45%, CCCCC(=O)OCc1cc(=O)n2nc(C3CCCCC3)sc2n1 3.47%, CCC1CN(C(=O)Nc2cc(C)ccc2OC)c2cc(Cl)ccc2O1 (stereo not given) -0.857%, COc1ccccc1NCc1cccn1-c1nnc(N2CCCCCC2)s1 -0.843%, Cc1cc(C)n(-c2nc3ccccc3nc2Nc2ccc(Cl)c(Cl)c2)n1 0.843%, COC(=O)c1ccc(NC(=O)CC2Nc3cc(C)c(C)cc3NC2=O)cc1 (stereo not given) -7.9%, Cc1cccc(OCC(=O)Nc2c(C(=O)N3CCN(c4ccccc4F)CC3)oc3ccccc23)c1 -3.55%, CCOc1ccc(S(=O)(=O)Nc2ccc3oc(C)c(C(=O)OC(C)C)c3c2)cc1 -22.9%, Cc1cc(C)cc(OCC(=O)NC(Cc2c[nH]c3ccccc23)C(=O)O)c1 (stereo not given) 10.3%, Cc1ccc(NC(=O)N2CCc3cc(S(=O)(=O)N4CCC(C)CC4)ccc32)cc1F -1.94%, CCOC(=O)c1ccc(N2C(=O)c3[nH]nc(-c4ccc(OC)cc4)c3C2c2ccccc2Cl)cc1 (stereo not given) 2.33%, CCOC(=O)N1CCN(C(=O)CN(c2cccc(Cl)c2)S(=O)(=O)c2ccccc2)CC1 -14.9%, CCCc1cc(=O)n2[nH]c(NC(=O)c3ccccc3Cl)nc2n1 0.362%, CCCN(C(=O)c1cc2c(=O)oc3ccccc3c2s1)c1cccc(Cl)c1 10.2%, COc1ccc(C2c3c(n(C)c4ccccc34)C(=O)N2CC(=O)Nc2cc(Cl)ccc2C)cc1 (stereo not given) -10.9%, O=C(Nc1ccccc1)N(Cc1cccs1)c1ccc(F)cc1 -8.37%, CCOC(=O)CSc1nc2cc3c(cc2c(=O)n1CCCC(=O)NCCc1ccc(OC)c(OC)c1)OCO3 0.544%, CCOC(=O)c1sc(N2C(=O)c3oc4ccc(C)cc4c(=O)c3C2c2ccccc2F)nc1C (stereo not given) 1.1%, CCc1cccc(NS(=O)(=O)c2ccc3c(c2)n(C)c(=O)c(=O)n3C)c1 2.96%, CCOC(=O)c1c(NC(=O)CSc2cn(CCNC(=O)c3ccc(OC)c(OC)c3)c3ccccc23)sc2c1CCCC2 10.6%, Cc1ccc(CNC(=O)CCCn2nc(C)c3c(C)n(-c4ccccc4)nc3c2=O)cc1 -5.77%, CCc1nonc1NC(=O)c1oc2ccc(C)cc2c1C -6.69%, CCOC(=O)c1ccc(-n2c(-c3ccc(C)cc3)c(C)n3c4c(=O)n(C)c(=O)n(C)c4nc23)cc1 7.38%, COc1ccc(-c2cc(-c3ccc4c(c3)NC(=O)CO4)nc3c2COc2ccc(F)cc2-3)cc1 7.36%, CN(C)c1ccc(-c2nc(-c3ccco3)no2)cc1[N+](=O)[O-] -0.208%, Cc1ccc(Cl)cc1-n1ncc2c(NCCCc3ccccc3)ncnc21 -14.8%, CCOc1ccccc1CNC(=O)c1ccc2c(c1)nc1n2CCCCC1 -2.63%, Cc1c(Nc2nc3ccccc3n3c(C)nnc23)cccc1C(=O)O 0.972%, CCN(CC)S(=O)(=O)c1ccc2c(c1)N(CC(=O)N1CCN(c3cccc(OC)c3)CC1)C(=O)CO2 3.22%, Cc1ccc(NC(=O)N2CC3CCCN3c3ccccc32)c(C)c1 (stereo not given) 7.76%, Fc1ccc(-n2ncc3c(N4CCCCCC4)ncnc32)cc1 5.68%, Cc1ccc(-c2cc(C(=O)N(Cc3ccc(C(C)(C)C)cc3)Cc3ccco3)no2)cc1 0%, CCc1cccc(C)c1NC(=O)CCn1c(=O)c2cccn2c2ccccc21 1.97%, CC(C)C(=O)NCC1(N(C)C)CCCCC1 0.357%, Cc1cc(N2CCN(c3cccc(C(F)(F)F)c3)CC2)n2nc(-c3ccccc3)nc2n1 -0.867%, Cc1ccc(NS(=O)(=O)c2cc3[nH]c(=O)c(=O)[nH]c3cc2C)cc1Cl -6.42%, CCOc1ccc(C(=O)Nc2c(C(=O)N3CCN(c4ccccc4F)CC3)oc3ccccc23)cc1 -7.25%, Cc1nc(SC(C)C(=O)Nc2ccccc2Cl)cc(-c2ccccc2)n1 (stereo not given) -11.5%, CCn1cc(C(=O)N2CCN(c3cc(C)ccc3C)CC2)c(=O)c2cc(S(=O)(=O)N3CCCCC3)ccc21 -1.88%, COc1ccc(N2CCN(Cc3cccn3-c3nnc(N4CCN(C5CCCCC5)CC4)s3)CC2)cc1 -0.593%, Cc1ccc([N+](=O)[O-])cc1S(=O)(=O)N1CCn2cccc2C1c1ccccc1 (stereo not given) -1.71%, CC(Oc1ccc(Br)cc1)C(=O)Nc1ncn[nH]1 (stereo not given) 6.21%, Cc1ccc2nc(-c3ccc(Cl)c(NC(=O)COc4ccc(C(C)C)cc4)c3)oc2c1 -6.15%, COc1ccc(NC(=O)CCc2nnc3n(Cc4ccccc4Cl)c(=O)c4ccccc4n23)cc1 0.48%, Cc1ccc(C)c(NC(=O)C2CCCN(S(=O)(=O)c3cn(C)cn3)C2)c1 (stereo not given) 0%, Cc1ccc(N2C(=O)N(Cc3cc(=O)n4ccccc4n3)c3ccccc3S2(=O)=O)cc1Cl -0.114%, CCOc1ccccc1CNC(=O)Cn1cc2c(n1)-c1c(oc(C(=O)N3CCCC3)c1C)CC2 -2.22%, Cc1ccc(S(=O)(=O)N2CCN(Cc3nc4ccc(C)cc4o3)CC2)cc1 2.28%, O=C(CS(=O)(=O)c1cccc2nsnc12)N1CCN(c2cccc(C(F)(F)F)c2)CC1 -10.6%, O=C(Cn1cc(S(=O)(=O)c2ccccc2)c(=O)c2cc3c(cc21)OCO3)Nc1ccc(Cl)cc1 3.56%, COc1ccc(Br)cc1CNC(=O)CCSCc1ccc(C)cc1 0.326%, CCNc1cc(N2CCN(C3CCCCC3)CC2)c2noc3c2c1C(=O)c1ccccc1-3 -0.0167%, CSc1ccc(CCNC(=O)c2ccc(-c3nc(COc4ccc(C)cc4)c(C)o3)cc2)cc1 -0.258%, CCOC(=O)CSc1nc2ccccc2c(=O)n1-c1cccc(C)c1 2.46%, O=C(O)Cc1ccc(NC2(c3ccccc3)C(=O)c3ccccc3C2=O)cc1 -10.1%, COc1ccc(C(=O)Nc2ccccc2SCc2cc(=O)c3cccc(C)c3[nH]2)cc1 -1.21%, COC(=O)c1ccccc1NC(=O)C1=C(C)C(=O)OC12CCCCCC2 0.781%, O=C(O)Cc1sc(Nc2ccccc2)nc1-c1ccccc1 -0.128%, COc1ccc(S(=O)(=O)NCCS(=O)(=O)N2CCN(c3ccccc3)CC2)cc1C -7.72%, COc1ccccc1CCNC(=O)C1CCN(c2nnc(-n3cccc3CNc3ccc(C)cc3)s2)CC1 -2.76%, COc1ccc(N2CCN(c3csc4ccc(Cl)cc4c3=O)CC2)cc1 0%, COc1ccc(Cl)cc1NC(=O)c1cn(C2CCCCC2)c(=O)c2c1c1ccccc1n2C -0.341%, Cc1c(C(=O)N(Cc2ccc(N(C)C)cc2)CC2CCCO2)oc2ccc(Cl)cc12 (stereo not given) -2.57%, CCOc1ccc(Nc2nc3cc(Cl)c(Cl)cc3nc2-n2nc(C)cc2C)cc1 3.17%, COc1ccc(CNC(=O)c2cc(-c3ccc(C)cc3)nc3n[nH]c(-c4ccc(Br)cc4)c23)cc1 0.349%, NS(=O)(=O)c1ccc(NC(=O)CN2C(=O)COc3ccc(Cl)cc32)cc1 -4.54%, Cc1ccc(C)c(S(=O)(=O)c2nnn3c2nc(NC(C)C)c2sccc23)c1 -9.91%, O=C(O)c1ccc2nc(-c3cc4cccc(O)c4oc3=O)[nH]c2c1 3.73%
